The structures appear in SMILES notation. The full ranking holds about 110,000 compounds; the median of “z-score” is about -0.1, and the highest 2% start at about 2. This is one part of the list. Activity calls are given as the source filed them.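 Rule for the calls: active = z-score in the third read window above 3 or below -3; inactive = the rest.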

This assay concerns the target Metabotropic glutamate receptor 8 (Rattus norvegicus) (UniProt P70579). Description: rat mGluR8 modulators via GIRK flux, primary screen, cell-based, thallium flux, HTS (AID 488969). Conditions: HEK293 rat mGluR8, GIRK (G protein-gated inwardly rectifying potassium channel) thallium flux, FluoZin2; at 10 µM; stronger effect = higher value; submaximal glutamate (EC20) added with thallium.
Chain of UniProt P70579 (P70579 whole entry, looked up): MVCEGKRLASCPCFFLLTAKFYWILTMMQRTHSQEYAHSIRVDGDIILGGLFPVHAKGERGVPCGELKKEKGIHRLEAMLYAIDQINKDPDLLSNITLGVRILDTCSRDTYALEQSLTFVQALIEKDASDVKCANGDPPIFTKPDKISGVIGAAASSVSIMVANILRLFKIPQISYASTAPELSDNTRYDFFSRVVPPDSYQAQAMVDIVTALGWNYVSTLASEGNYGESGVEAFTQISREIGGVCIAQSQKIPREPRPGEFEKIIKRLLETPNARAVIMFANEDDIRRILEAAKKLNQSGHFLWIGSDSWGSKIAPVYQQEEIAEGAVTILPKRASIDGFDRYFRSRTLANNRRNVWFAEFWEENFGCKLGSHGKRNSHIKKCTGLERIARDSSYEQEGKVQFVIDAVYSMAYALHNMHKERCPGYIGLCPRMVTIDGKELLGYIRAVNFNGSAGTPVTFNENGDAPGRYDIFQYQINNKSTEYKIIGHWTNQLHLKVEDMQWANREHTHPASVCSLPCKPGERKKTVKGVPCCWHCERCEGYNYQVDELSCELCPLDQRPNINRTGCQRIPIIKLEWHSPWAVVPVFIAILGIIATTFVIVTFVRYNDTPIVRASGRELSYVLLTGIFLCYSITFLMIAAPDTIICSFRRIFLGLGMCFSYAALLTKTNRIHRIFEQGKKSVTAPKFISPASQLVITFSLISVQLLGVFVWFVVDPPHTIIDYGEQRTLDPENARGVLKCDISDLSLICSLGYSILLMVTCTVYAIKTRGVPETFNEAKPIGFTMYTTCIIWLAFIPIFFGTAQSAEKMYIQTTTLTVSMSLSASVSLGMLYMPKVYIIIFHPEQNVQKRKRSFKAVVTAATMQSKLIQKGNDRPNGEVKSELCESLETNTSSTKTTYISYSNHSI
In the case of `O=C(c1ccco1)N1CCN(CC(O)Cn2c3ccccc3c3ccccc32)CC1` (stereo unspecified), the z-score is -0.422. `O=c1cc(-c2cccc([N+](=O)[O-])c2)[nH][nH]1` came in with a z-score of -0.0315. Regarding `CC(C)N1CC(O)=C(c2nc3ccccc3c(=O)[nH]2)C1=N`, the z-score was -0.0374. Next, `Cc1cccc(N2C(N)=NC(N)=NC23CCCCC3)c1`: 2.24; `CCSc1nnc(NC(=O)CSc2nnc(CNC(=O)c3ccc(OC)cc3)o2)s1`: -0.267. Consider `CCCCSc1nnc(-c2c[nH]c3ccccc23)n1C`, for which the z-score is -0.116. `Cn1c(SCc2cc(=O)[nH]c3ccccc23)nnc1-c1ccc(Br)cc1` displayed a z-score of -0.053.

As for `CNc1nc(C)nc(-n2nc(C)cc2C)n1`, the z-score stood at 0.115.

`Cc1ccnc(NC2(C(F)(F)F)N=C(c3ccccc3)NC2=O)c1` (stereo unspecified) yielded a z-score of -0.132.

`CCc1nc(SCC(=O)Nc2c(C)n(C)n(-c3ccccc3)c2=O)n[nH]1`: the z-score was -0.584.

In the case of `COc1ccc(NS(=O)(=O)c2cccc(-c3nnc4n3CCCCC4)c2)cc1`, the z-score worked out at 1. In turn, `N#CCCn1nnc(-c2ccccc2F)n1` returned a z-score of -0.226.

The compound `CCN(CC)S(=O)(=O)c1ccc(N2CCOCC2)c(NC(=O)Cc2cccc3ccccc23)c1` gave a z-score of -0.118. Next, `Cc1nn(-c2ccccc2)c(Cl)c1C(=O)Nc1c(C)n(C)n(-c2ccccc2)c1=O`: 0.11; `Cn1c(SCC#N)nnc1-c1cnccn1`: 0.549; `O=C(CSc1oc(-c2ccccc2)nc1S(=O)(=O)c1ccc(F)cc1)NCC1CCCO1` (stereo unspecified): 0.151. On to `Cn1c(Cn2c(=O)sc3ccccc32)nnc1SCc1ccccn1`, for which the z-score came out at 0.333. `N#Cc1c(N2CCCC(O)C2)nc(N)c2c(N)nc3c(c12)CC(=O)N3C12CC3CC(CC(C3)C1)C2` (stereo unspecified) returned a z-score of -0.293.

Compound `COc1ccc(C2CC(c3ccc(C)cc3)Nc3nc(N)nn32)cc1` (stereo unspecified) returned a z-score of -0.0533. To `O=C(COC(=O)CSc1ccc2ccccc2c1)NC1CC1` belongs -0.088; to `CCOc1ccccc1C(=O)NC(CO)C(=O)O` (stereo unspecified), -0.109; to `Cn1c(SCc2ccc(C(=O)Nc3nccs3)cc2)nnc1-c1ccccc1`, -0.332. Next, `CCNC(=O)C/C(C)=N/NC(=O)C12CC3CC(CC(C3)C1)C2`: -0.0248; `Cc1csc(NC(=O)c2c(-c3c(Cl)cccc3Cl)noc2C)n1`: 0.117.

As to `COc1ccc(-n2c(O)c(/C=N/n3cnnc3)c3ccccc3c2=O)cc1`, the z-score was -0.201.

Compound `O=C(CSc1ccccc1)Nc1ccc(NC(=O)c2ccco2)cc1` showed a z-score of 0.0534. To `CCCC(CCC)C(=O)Nc1cccc(C(=O)O)c1` belongs -0.358; to `Cc1ccsc1/C=C/C1=Cc2c(sc(NC(=O)CSc3n[nH]c(N)n3)c2C#N)C(C)(C)C1`, -0.0316; to `Cc1onc(C(=O)N2CCC(C(N)=O)CC2)c1-c1ccccc1Cl`, 1.67. Next, `Cc1nc2sc(C#N)c(N)c2c2c1CCCC2`: -0.138. To `O=C1c2ccccc2-c2nc3ccccc3nc21` belongs 0.224; to `O=C(Nc1ccccc1)c1ccc(N2CCN(c3ccccc3)CC2)c(S(=O)(=O)N2CCOCC2)c1`, -0.142. `CCOc1cc(/C=N\NC(=O)c2ccc(NC(=O)C(C)(C)C)cc2)ccc1OC(=O)c1ccc(OC)cc1` displayed a z-score of -0.135.

For `O=C(Cn1cncc1-c1ccc([N+](=O)[O-])cc1)Nc1ccccc1F`, the z-score was -0.169. To `Cc1nc2ccc(NC(=O)NCCO)cc2s1` belongs 0.213. The compound `Cc1ccc(C)c(C(=O)CN2C(=O)c3ccccc3S2(=O)=O)c1` had a z-score of 0.179. For `COC(=O)c1cc(-c2ccc(Br)cc2)n[nH]1`, the z-score amounted to 0.097. Regarding `CCOC(=O)c1ccc2[nH]c3c(c2c1)CCCC3C(=O)OCC` (stereo unspecified), the z-score was -0.158. `CCOc1cc(Cl)c(S(=O)(=O)NCc2ccccn2)cc1Cl` registered a z-score of 0.225.

As for `Nc1cc(C(=O)OCC(=O)N2CCCC2)ccc1Cl`, the z-score was -0.0441. In the case of `COc1ccc(C(=O)CSc2nc3ccccc3n2CC(=O)c2ccccc2)cc1`, the z-score was -0.112.

For the compound `Nc1nc(SCC(=O)NNc2c(Cl)cc(Cl)cc2Cl)n[nH]1`, the z-score is -0.396.

On to `O=C(N/N=C/c1ccc[nH]1)c1cccc(Br)c1`, for which the z-score turned out to be 0.583. Next, `C=CCN1C(=NC(=O)CC)SC2CS(=O)(=O)CC21` (stereo unspecified): 0.204; `Cn1c(NCCCN2CCOCC2)nc2c1c(=O)n(Cc1ccc(Cl)c(Cl)c1)c(=O)n2C`: -0.0906.

As to `Cc1ccc(-c2nn(C)c(=O)c3ccccc23)cc1CNC(=O)/C=C/c1ccccc1`, the z-score is -2.07. To `COC(=O)c1c(NC(=O)Cc2cccs2)sc(C(=O)N2CCCCC2)c1C` belongs -1.56; to `COc1ccc(C)cc1S(=O)(=O)N(CC(=O)Nc1cccc([N+](=O)[O-])c1)c1cc(C)cc(C)c1`, -0.0777.

As to `Cc1c(C(=O)NCc2ccccc2)oc2ccc(S(=O)(=O)N3CCC4(CC3)OCCO4)cc12`, the z-score was -0.293. To `COc1ccc(NC(=O)N2c3ccccc3CC2C)cc1OC` (stereo unspecified) belongs -0.233; to `O=C(CCSCCc1ccccn1)Nc1ccccn1`, -0.136.

Regarding `CCN(C1CCCCC1)S(=O)(=O)c1ccc(OC)c(C)c1`, the z-score is -0.163. Take `COc1ccc(-c2nn(-c3ccccc3)cc2CNC(=O)c2cccc([N+](=O)[O-])c2)cc1`: the z-score was -0.207. To `C/C(CC(=O)Nc1ccc(Cl)cc1Cl)=N\NC(N)=S` belongs -0.16; to `O=C(NCCN1CCN(Cc2ccccc2)CC1)c1cc2c(=O)[nH]c3ccccc3c2s1`, 2.15; to `O=C(OCc1cnc(Cl)s1)c1ccccc1Cl`, -0.386. To `CC(C)CN1C(=O)NC(NS(=O)(=O)c2ccc(N)cc2)(C(F)(F)F)C1=O` (stereo unspecified) belongs 0.0251. For `COc1ccc([N+](=O)[O-])cc1C1NN=C(c2ccccc2O)S1` (stereo unspecified), the z-score came out at 0.305. To `CCCCCCc1cc2cc(C(=O)NCc3ccccc3)c(=N)oc2cc1O` belongs 0.891; to `O=C1c2ccccc2C(Nc2ccc(F)c(Cl)c2)N1c1ccccn1` (stereo unspecified), 1.06. Next, `Cc1cc(C)c2c(c1)/C(=N/NS(=O)(=O)c1ccc(Br)cc1)CCC2`: -0.555; `Cc1c(Nc2nc3ccccc3nc2NS(=O)(=O)c2cccs2)c(=O)n(-c2ccccc2)n1C`: 0.66. `Cc1ccc(C)c(NC(=O)C2(C)CC3c4ccccc4C2c2ccccc23)c1` (stereo unspecified) had a z-score of -0.0928. To `COc1ccc(NC(=O)CSc2nccc(C)n2)cc1` belongs 0.549. Next, `Cc1ccc(-c2nnc(SCC#CCOC(=O)c3ccco3)o2)cc1`: -0.529. In turn, `COc1ccccc1/C=N/NC(=O)C(=O)N1CCN(c2ccccc2OC)CC1` came in with a z-score of -0.405. `COc1ccc(OCc2nc(N)nc(Nc3ccccc3)n2)cc1`: the z-score was active: 5.72. To `COc1ccc(S(=O)(=O)Cc2ccc(C(=O)NC3CC3)o2)cc1` belongs -0.451; to `CC(C)CNC(=O)CCc1c[nH]c2ccccc12`, -0.463; to `CO/N=C/NC(=O)c1c(OC)ccnc1Oc1ccc(Cl)cc1`, -0.0797.

`CC(=O)C1=C(O)C(=O)N(CCN2CCOCC2)C1c1ccc(N(C)C)cc1` (stereo unspecified) had a z-score of 0.474. To `Cc1cc(C)cc(C(=O)N2CCCCCC2)c1` belongs 0.076; to `O=C(CCCN1C(=O)CCC1=O)Nc1ccc2c(c1)OCO2`, 0.325. Next, `Cc1ccc(NC(=O)CSc2nc3ccccc3c3nc4ccccc4n23)cc1`: -0.225; `Cc1oncc1-c1cn2ccccc2n1`: 0.00287. Next, `COc1ccc(Nc2ccccc2)c(C)c1`: -0.328.

`CCc1ccc(C(=O)COC(=O)C(Cc2ccccc2)NC(=O)C2CCC(C)CC2)cc1` (stereo unspecified): the z-score came to 0.18. Compound `CN1CC(c2ccccc2)C(c2ccc(Cl)cc2)=N1` (stereo unspecified) came in with a z-score of -0.0948. `N#C/C(=C\c1cn(-c2ccccc2)nc1-c1ccccc1)S(=O)(=O)c1ccccc1` had a z-score of -0.452.

With `c1ccc(-c2nnc(OCCN3CCOCC3)c3ccccc23)cc1`, the z-score was determined as 0.0453. To `O=C(Nc1ncn[nH]1)c1ccc([N+](=O)[O-])cc1[N+](=O)[O-]` belongs -0.0996; to `CC(C)CCNC(=O)NC(=O)COC(=O)c1cc(S(=O)(=O)N2CCOCC2)ccc1N1CCCCC1`, -0.197.

In turn, `CN(C(=O)c1ccccn1)c1nnc(-c2ccncc2)s1` showed a z-score of -0.931. Take `CC(=O)c1sc(N/N=C\c2ccc(C)cc2)nc1C`: the z-score is -0.323.

In turn, `CCn1c(SCCOc2ccc(Cl)cc2)nnc1-c1cccs1` showed a z-score of 1.3.

`CCOc1cc(C2C(C(=O)c3ccc(C)cc3)=C(C(=O)OC)Nc3nnnn32)ccc1O` (stereo unspecified): the z-score was -0.142. `CCn1c(SCC(=O)N2CCCc3ccccc32)nnc1-c1c[nH]c2ccccc12` came in with a z-score of -0.682. Next, `Cc1ccc(CN2CCN(Cc3ccccc3C(F)(F)F)CC2)cc1`: -0.0837; `COc1ccccc1C(=O)Nc1nnc(-c2ccco2)s1`: -0.104. To `CCn1c(CC(=O)Nc2ccc(C)cc2)nnc1SCC(=O)NCc1ccccc1` belongs 0.00696. `CCOc1ccc(C)cc1-n1nc2ccccc2n1` yielded a z-score of -0.124. As for `O=C(Cc1ccccc1)NCC1CCCO1` (stereo unspecified), the z-score worked out at 0.292. With `N#CCC(=O)N/N=C1\CCCCC1C1CCCCC1` (stereo unspecified), the z-score was 0.419. `O=C(C1CCCO1)N1CCN(C(=S)Nc2cccc(Cl)c2)CC1` (stereo unspecified): the z-score is -0.344. `Cc1cccc(N2CC34C=CC(O3)C(C(=O)O)C4C2=O)c1` (stereo unspecified): the z-score is -0.588. `O=C(O)CN(c1ccccn1)S(=O)(=O)c1ccccc1` gave a z-score of 0.00416. Next, `Cc1cc(C)c2c(N)c3cccc(C)c3nc2n1`: 0.0736. To `Cc1sc(N2C(=O)C3C4C=CC(C4)C3C2=O)c(C#N)c1C` (stereo unspecified) belongs -0.106. Next, `Cc1ccc(S(=O)(=O)N(C)c2ccc(C(=O)O)cc2)cc1`: -0.249; `CCOC(=O)Cn1c(C)cc(=O)c2ccccc21`: -0.138. `CC(C)C(C(=O)NC(C)(C)C)N1C(=O)c2ccccc2C1=O` (stereo unspecified) displayed a z-score of -0.131.

Consider `O=[N+]([O-])c1ccc2nc(-[n+]3c(-c4ccccc4)cc(-c4ccccc4)cc3-c3ccccc3)[nH]c2c1`, for which the z-score is -0.969. As for `CCNC(=O)/C(C#N)=C/c1c(N2CCN(Cc3ccc4c(c3)OCO4)CC2)nc2c(C)cccn2c1=O`, the z-score was -0.699.

The compound `Cc1cc(C(=O)Nc2ccc(S(=O)(=O)Nc3onc(C)c3C)cc2)c(C)o1` gave a z-score of 0.0164.

Turning to `CC(C)=CC(=O)Nc1ccc2c(c1)OCO2`, the z-score is -0.362.

Regarding `C#CCSc1nnc(-c2cccc3ccccc23)o1`, the z-score is active: -5.11.

Take `O=C(CSc1ccc(F)cc1)N1CCC(c2nc3ccccc3s2)CC1`: the z-score is -0.105. Next, `Nc1ccc(C(=O)OCC(=O)N2CCN(C(=O)c3ccco3)CC2)cc1[N+](=O)[O-]`: -1.89; `CCCCS(=O)(=O)c1sc2nc(C)cc(C)c2c1N`: 0.0692. Consider `CCOc1ccc(C(CC(=O)O)NC(=O)c2ccco2)cc1OC` (stereo unspecified), for which the z-score is 0.387. `COC(=O)N/N=C(\C)c1ccc(Br)cc1`: the z-score came to 0.0678.

The values above are taken from PubChem BioAssay AID488969 (Vanderbilt High Throughput Screening Facility, 2010).
